These results are taken from paper PMC5700166.

The entries are a selection whose mix differs from that of the whole data set. The list includes weakly bound sequences.

For the test, the target named is T1, GST-Aq-NF-kB (UniProt A9Y5G7).
T1 sequence: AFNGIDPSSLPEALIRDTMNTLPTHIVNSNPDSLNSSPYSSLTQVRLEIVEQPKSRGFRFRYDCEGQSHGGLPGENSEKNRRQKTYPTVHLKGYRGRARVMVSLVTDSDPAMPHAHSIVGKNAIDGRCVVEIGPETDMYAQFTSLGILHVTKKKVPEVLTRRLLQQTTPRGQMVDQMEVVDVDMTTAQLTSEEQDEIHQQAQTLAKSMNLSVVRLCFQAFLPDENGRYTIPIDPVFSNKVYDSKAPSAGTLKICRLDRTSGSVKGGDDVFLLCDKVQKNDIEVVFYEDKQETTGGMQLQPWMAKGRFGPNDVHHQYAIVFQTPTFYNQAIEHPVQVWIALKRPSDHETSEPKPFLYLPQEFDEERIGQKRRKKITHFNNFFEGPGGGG
Put plainly: protein-binding microarray (PBM). The note with it: PBM: ~300 nM protein, 6 mM HEPES pH 7.8, 80 mM KCl, 0.5 mM EDTA, 0.5 mM EGTA, 6% glycerol, 35 ng/ul poly-dIdC, 1% milk, 1 h, room temperature; Ap Aiptasia and Nv Nematostella (sea anemones) / Co Capsaspora / Aq Amphimedon (sponge) / Dm Drosophila / Hu human; RHD is the Rel homology domain; high values mean tight binding; most listed sequences are background and not binding sites; double strand, one strand shown.
Regarding “CCGATTAACATCAGGAAAATACATGATGTTAATCGGGTCTTGATTCGCTTGACGCTGCTG”, the binding signal was 0.803 z-score. For “CCGATTAACATCACGTAAAATCCTGATGTTAATCGGGTCTTGATTCGCTTGACGCTGCTG”, the binding signal is 0.767 z-score. For “CCGATTAACATCACAAAATTCCATGATGTTAATCGGGTCTTGATTCGCTTGACGCTGCTG” the value was 0.843 z-score.

Take “CCGATTAACATCAGGAAAACACATGATGTTAATCGGGTCTTGATTCGCTTGACGCTGCTG”: the binding signal was 0.549 z-score. Sequence “CCGATTAACATCAAAAAAAGTACTGATGTTAATCGGGTCTTGATTCGCTTGACGCTGCTG” came in with a binding signal of 1.54 z-score. The same measure for “CCGATTAACATCAAATAATTTCCTGATGTTAATCGGGTCTTGATTCGCTTGACGCTGCTG”: 0.873 z-score; for “CCGATTAACATCACGTATTTTCCTGATGTTAATCGGGTCTTGATTCGCTTGACGCTGCTG”: 0.754 z-score. In the case of “CCGATTAACATCACGTTTTTTCCTGATGTTAATCGGGTCTTGATTCGCTTGACGCTGCTG”, the binding signal worked out at 0.789 z-score. For “CCGATTAACATCACGTAAACTCCTGATGTTAATCGGGTCTTGATTCGCTTGACGCTGCTG” the value was 0.17 z-score.

In the case of “CCGATTAACATCAGAATTTCCTATGATGTTAATCGGGTCTTGATTCGCTTGACGCTGCTG”, the binding signal stood at 0.807 z-score. For “CCGATTAACATCAAAATTCCCCCTGATGTTAATCGGGTCTTGATTCGCTTGACGCTGCTG” the value was 9.32 z-score.

“CCGATTAACATCATTTACATTCGTGATGTTAATCGGGTCTTGATTCGCTTGACGCTGCTG” registered a binding signal of -0.175 z-score. For “CCGATTAACATCAGTAAAATCCATGATGTTAATCGGGTCTTGATTCGCTTGACGCTGCTG” the value was 0.471 z-score; for “CCGATTAACATCATGGTACTTGTTGATGTTAATCGGGTCTTGATTCGCTTGACGCTGCTG”, -0.0709 z-score.
